The full ranking holds about 33,000 sequences; the median of “E-score (-0.5 to 0.5)” is about -0.041, and the highest 2% start at about 0.37. Some of the results follow.
target: T1, Ecm22 (UniProt Q05958); assay: PBM E-score (8-mer binding enrichment) (E-score (-0.5 to 0.5)); higher = stronger / more preferred TF binding; most listed sequences are background and not binding sites; details: protein concentration: 200 nM; construct: GST-full length
T1 sequence: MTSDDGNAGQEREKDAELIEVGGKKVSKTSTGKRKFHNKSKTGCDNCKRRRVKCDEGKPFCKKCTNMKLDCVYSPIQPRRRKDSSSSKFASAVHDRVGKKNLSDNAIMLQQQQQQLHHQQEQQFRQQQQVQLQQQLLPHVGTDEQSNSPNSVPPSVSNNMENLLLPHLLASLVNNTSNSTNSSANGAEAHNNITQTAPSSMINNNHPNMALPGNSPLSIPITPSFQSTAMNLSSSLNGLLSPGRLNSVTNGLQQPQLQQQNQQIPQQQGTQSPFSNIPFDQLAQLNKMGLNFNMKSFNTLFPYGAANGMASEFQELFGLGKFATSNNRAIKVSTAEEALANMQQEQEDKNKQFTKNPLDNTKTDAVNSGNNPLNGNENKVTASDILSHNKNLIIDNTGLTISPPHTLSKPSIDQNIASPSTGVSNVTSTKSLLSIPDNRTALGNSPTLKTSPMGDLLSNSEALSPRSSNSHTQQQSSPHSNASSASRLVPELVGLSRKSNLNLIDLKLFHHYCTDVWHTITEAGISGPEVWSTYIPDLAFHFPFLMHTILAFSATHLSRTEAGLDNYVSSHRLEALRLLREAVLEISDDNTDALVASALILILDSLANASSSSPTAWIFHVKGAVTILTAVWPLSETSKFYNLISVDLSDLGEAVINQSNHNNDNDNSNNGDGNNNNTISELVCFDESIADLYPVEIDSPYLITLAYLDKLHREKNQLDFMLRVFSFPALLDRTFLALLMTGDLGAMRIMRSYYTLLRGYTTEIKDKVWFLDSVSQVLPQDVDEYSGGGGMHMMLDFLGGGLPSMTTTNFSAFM
Method: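 Universal 'all 10-mer' protein binding microarrays (Agilent AMADID 015681) probed with GST-tagged S. cerevisiae TFs (full-length or DBD) made by in vitro transcription/translation (PURExpress), about 100-200 nM. Bound TF was detected with fluorescent anti-GST. Each ungapped 8-mer (which stands for itself and its reverse complement) is scored by the PBM enrichment score (E-score), a modified Wilcoxon-Mann-Whitney statistic from -0.5 to +0.5, computed with the Universal PBM Analysis Suite. Scale: above 0.35 generally sequence-specific binding.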

Sequence | PBM E-score
ACCGAGGC | 0.164
GGCAGCGA | -0.165
GGGATACA | -0.239
ATGGAAAT | -0.0843
AAGCACCG | -0.0461
ATAGGGAT | -0.0659
GCGCCTGA | -0.135
CACTGGAC | -0.0354
CGACGGAA | 0.159
GCGAGGAC | 0.0393
GTCACAAC | 0.077
AGTTCATA | -0.049
CTTGCTTC | -0.131
CTCTGGAA | 0.047
ACAACAAA | 0.135
CCTCGGCA | 0.165
TCCCGGGA | -0.234
ACTACTTA | 0.0179
GGCCAGAA | -0.171
CGCTTCGA | 0.0703
CAGACGAA | 0.232
CCGAGATA | 0.186
CGAGCAAA | 0.256
AAACCGCG | -0.0681
AAGGCTGA | -0.247

Sequence | PBM E-score
AAATTGTG | -0.151
AAGAACAC | 0.0273
AGCACAAC | 0.0676
CTGGTTTC | -0.0712
ACCGAACT | 0.0668
GAGAACCC | -0.121
GGTCGTGA | -0.0346
ATACTTTG | 0.0163
TCAATGGA | -0.217
CTCTTATA | 0.205
AATTATCT | -0.122
AGATGCAG | -0.0553
CAGTGCAC | -0.176
AAAAACAC | -0.0895
ACCTGACC | -0.143
GACCCCAC | 0.0153
AGTGTGCA | -0.125
ACGTTGAT | 0.0446
CTGGCGGC | -0.172
CAAGACGA | -0.0769
GTAGCGTA | 0.244
ATTCGATG | -0.0139
ATCGCTCA | 0.216
CATAGGTA | 0.0765
ACAGCCCA | -0.0257

Sequence | PBM E-score
ATTTGAGC | -0.0853
CGATGCAA | 0.133
CCGACCGG | 0.248
ATGACATA | 0.0554
ATTCTTCG | 0.154
CCTCACAG | -0.0635
GTTTGGTA | 0.248
AGTTCACC | 0.0476
GAGGCCAC | -0.124
CGTGATAA | 0.0329
AAAGCCTT | -0.0935
CTGCATAA | -0.136
CAATGATA | -0.138
AGGCCACA | -0.296
GTGGCCCA | -0.132
AGGTAATA | -0.0812
ATCCCTCG | 0.178
CCGCGGCG | -0.0681
CCAGTGAA | -0.295
GACGCCTA | -0.221
TCCCCAAA | -0.124
CTGATCGA | -0.0346
AATACAGC | -0.185
CAAAAGCC | -0.273
CGATTGTC | 0.0603

Sequence | PBM E-score
AGGTCGTG | -0.13
GAAGGTAC | 0.215
ACTTCATC | -0.051
CAGCGCAG | -0.197
CACGCTGA | -0.125
AAGACTCG | 0.0673
CAAGACCC | -0.0416
GTTCCGCA | 0.268
AGGTGGAC | -0.279
GAACGGTA | 0.319
CCAGTACA | -0.178
AGGGGTTC | -0.0469
AATTGGCA | -0.069
ATCTTGAC | -0.224
GGTCCAGA | -0.138
CGTGAATC | 0.0832
ACGATGCG | 0.328
AAGTAGAT | -0.105
CGCTCACG | 0.0805
AACGTACG | 0.378
ACGTGAAT | 0.17
ACTGCCTG | 0.00565
CGTCTACC | -0.05
GCGGCTAC | -0.0768
GTGTTCGA | 0.182

Sequence | PBM E-score
CGTTTTCA | 0.188
ATAAAATA | -0.0887
CCGCCCCG | 0.00902
AAACGTCC | -0.0477
GATTGGGA | -0.353
CTCATACC | 0.0043
GATGTCGC | 0.201
CGCTAGTA | 0.135
CTGGTGGC | -0.0478
ACTTCTTG | 0.0414
GCTTCACA | -0.0992
AATCTCAG | -0.204
ATTATGAA | -0.107
AGTCGCAT | 0.201
GCGAGCAC | 0.208
GCTCAAAC | 0.0479
GACAACAA | 0.14
AGTGAAGA | -0.0895
GAGTGCAC | 0.0272
AATTTTCC | 0.178
AGAGATAT | 0.0139
AGCGGAAG | 0.0826
AGCCATGA | 0.131
AACATTTA | 0.0425
GGGAGCCC | -0.235

Sequence | PBM E-score
TAACTTCA | 0.0176
CTGTTGTA | -0.103
AAAGAACA | -0.129
CAGATTAG | -0.218
CGGGAAAA | 0.137
CCTATAAA | -0.0954
GCCGGCGA | -0.117
CCAGTGCC | -0.0678
ATTTTGCA | -0.0799
GACCGGCC | -0.0673
AGCCGTAT | 0.315
AATCAAAA | -0.0669
CCGCGCAC | -0.0362
ACGTAGTC | -0.158
CCCGCCGG | -0.202
CAATTAAC | 0.0679
GAGGCAGA | -0.0134
ACGCAGCC | 0.00221
AAAAGCCG | 0.0262
AAATTAGT | -0.0384
ATAGAACA | -0.174
CCTGTTAA | -0.317
AGAGTGTA | -0.138
AAAGGTCT | -0.0115
AGCGGCAG | -0.134

Sequence | PBM E-score
CCAATCAG | -0.212
CGTCACTA | -0.0261
ACTAAGGC | -0.282
ACCTTTAG | -0.154
CCGTGTTA | -0.0133
ATGTACTA | 0.0275
GTAGCGGA | 0.224
CTGGTCGC | -0.0227
CGTCGGGA | 0.186
ATTGGCAA | -0.038
ATTTCCCG | 0.133
ACGCGGAT | 0.215
TAGAGGAA | -0.124
AAAGCGCT | 0.0332
ATCACGCA | -0.116
GCTTGACA | -0.217
AACTGTGT | -0.0758
AGCAAGCA | -0.15
GGTTACCA | 0.0711
CGAGCAAC | 0.168
TCCATGAA | -0.0563
GACGCTGA | -0.0977
